# Laboratory results reported in a collection of fitness landscapes (doi:10.1016/j.celrep.2020.107928).
# In all, about 81,000 sequences were measured (“one-hybrid fitness for binding NBS DNA”: median about -0.1, highest 2% from about 0.36 on). This is one part of the list.
# B1: Caulobacter ParB omega fusion; a variant is named by its letters at X, in order, B8GW30 (parent)
# chain: MESVVVGEPGMSEGRRGLGRGLSALLGEVDAAPAQAPGEQLGGSREAPIEILQRNPDQPRRTFREEDLEDLSNSIREKGVLQPILVRPSPDTAGEYQIVAGERAWRAAQRAGLKTVPIMVRELDDLAVLEIGIIENVQRADLNVLEEALSYKVLMEKFERTQENIAQTIGKSXSHVANXMRLLXLPDEVQSYLVSGELTAXHARAIAAAADPVALAKQIIEGGLSVRETEALARKAPNLSAGKSKGGRPPRVKDTDTQALESDLSSVLGLDVSIDHRGSTGTLTITYATLEQLDDLCNRLTRGI
# Variants of: B1
# Experiment: one-hybrid fitness for binding NBS DNA (the Noc-binding site; scaled: cognate 1, non-cognate 0); higher = stronger binding
# Conditions: with NBS DNA site
# Procedure, shortened: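 Fitness is the rescaled log change in variant-to-wild-type read ratio, measured by Illumina sequencing of plasmids before and after bacterial one-hybrid selection. The scale puts cognate at 1 and non-cognate at 0. Selection of Caulobacter ParB libraries, four specificity codons randomised, took place in E. coli USO with a HIS3 reporter, site 19 bp from the promoter, over 48 hours at 37°C on M9-minus-histidine with 0.1 mM IPTG and 5 mM 3-AT.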
row,Variant,one-hybrid fitness for binding NBS DNA
1,VHYT,≤ 0.2
2,TVAA,≤ 0.2
3,GCHN,≤ 0.2
4,GECA,≤ 0.2
5,NECT,≤ 0.2
6,PIYM,≤ 0.2
7,MQIF,≤ 0.2
8,MSYH,≤ 0.2
9,ELKV,≤ 0.2
10,QSFF,≤ 0.2
11,LKSD,≤ 0.2
12,WRTL,≤ 0.2
13,PTTC,≤ 0.2
14,QSSK,≤ 0.2
15,HEAN,≤ 0.2
16,TVNY,≤ 0.2
17,MNDT,≤ 0.2
18,RVPS,≤ 0.2
19,VHLL,≤ 0.2
20,DMKE,≤ 0.2
21,GVCA,≤ 0.2
22,NAEP,≤ 0.2
23,MIHG,≤ 0.2
24,NHST,≤ 0.2

row,Variant,one-hybrid fitness for binding NBS DNA
1,SSNC,≤ 0.2
2,TFWT,≤ 0.2
3,DEHG,≤ 0.2
4,LAGT,≤ 0.2
5,SVGP,≤ 0.2
6,PLDI,≤ 0.2
7,PFHN,≤ 0.2
8,ATGL,≤ 0.2
9,QNKH,≤ 0.2
10,HLCM,≤ 0.2
11,RQHN,≤ 0.2
12,RVSR,0.439
13,IWQR,≤ 0.2
14,RVSE,≤ 0.2
15,ASGG,≤ 0.2
16,WPTF,≤ 0.2
17,IRPG,≤ 0.2
18,GPVR,≤ 0.2
19,NCQG,≤ 0.2
20,PWCF,≤ 0.2
21,TMML,≤ 0.2
22,LTYA,≤ 0.2
23,ADTR,≤ 0.2
24,SPVE,≤ 0.2

row,Variant,one-hybrid fitness for binding NBS DNA
1,NWNA,≤ 0.2
2,VEAH,≤ 0.2
3,KNVC,≤ 0.2
4,SPGW,≤ 0.2
5,RHNF,≤ 0.2
6,TVGR,≤ 0.2
7,HPNK,≤ 0.2
8,IKSS,≤ 0.2
9,KPWG,≤ 0.2
10,HRIL,≤ 0.2
11,LFPL,≤ 0.2
12,AGFT,≤ 0.2
13,YGKR,≤ 0.2
14,FLGR,≤ 0.2
15,LRVI,≤ 0.2
16,PYRA,≤ 0.2
17,LMAA,≤ 0.2
18,GETW,≤ 0.2
19,RSLS,0.303
20,PRQL,≤ 0.2
21,KIIG,≤ 0.2
22,FAPL,≤ 0.2
23,ANMG,≤ 0.2
24,LVRL,≤ 0.2

row,Variant,one-hybrid fitness for binding NBS DNA
1,GRHS,≤ 0.2
2,FQAL,≤ 0.2
3,TQQM,≤ 0.2
4,VNYL,≤ 0.2
5,WHPD,≤ 0.2
6,EEDR,≤ 0.2
7,QRLH,0.453
8,YRVR,≤ 0.2
9,RGLD,≤ 0.2
10,TSQL,≤ 0.2
11,SNEF,≤ 0.2
12,CNVC,≤ 0.2
13,CTIF,≤ 0.2
14,LLSG,≤ 0.2
15,AIAV,≤ 0.2
16,CEMR,≤ 0.2
17,NEFY,≤ 0.2
18,KANV,≤ 0.2
19,MFRY,≤ 0.2
20,TFYV,≤ 0.2
21,RVKL,≤ 0.2
22,AWQR,≤ 0.2
23,FVQV,≤ 0.2
24,NHCR,≤ 0.2

row,Variant,one-hybrid fitness for binding NBS DNA
1,GHLY,≤ 0.2
2,AQKW,≤ 0.2
3,QYSW,≤ 0.2
4,RIIW,≤ 0.2
5,RHDN,≤ 0.2
6,PLSK,≤ 0.2
7,MPVC,≤ 0.2
8,RCTI,≤ 0.2
9,LAQK,≤ 0.2
10,VPPY,≤ 0.2
11,WVQL,≤ 0.2
12,DGPL,≤ 0.2
13,PLLY,≤ 0.2
14,CRYL,≤ 0.2
15,NRQL,≤ 0.2
16,KMRV,≤ 0.2
17,VAAI,≤ 0.2
18,NVRA,≤ 0.2
19,TSYR,≤ 0.2
20,RDGK,≤ 0.2
21,TEQY,≤ 0.2
22,MEAY,≤ 0.2
23,TTMQ,≤ 0.2
24,RAWF,≤ 0.2

row,Variant,one-hybrid fitness for binding NBS DNA
1,RRLS,0.606
2,WMRR,≤ 0.2
3,DPNT,≤ 0.2
4,INNL,≤ 0.2
5,WDKG,≤ 0.2
6,NFKT,≤ 0.2
7,CVPF,≤ 0.2
8,VSLI,≤ 0.2
9,LQWY,≤ 0.2
10,TLGV,≤ 0.2
11,IPHS,≤ 0.2
12,TTKC,≤ 0.2
13,FTQS,≤ 0.2
14,IAMC,≤ 0.2
15,NTFC,≤ 0.2
16,RTWP,≤ 0.2
17,RMHG,≤ 0.2
18,DIRS,≤ 0.2
19,YAGC,≤ 0.2
20,KYPC,≤ 0.2
21,SLLT,≤ 0.2
22,GVMC,≤ 0.2
23,RYRR,0.726
24,ADRG,≤ 0.2

row,Variant,one-hybrid fitness for binding NBS DNA
1,EECG,≤ 0.2
2,SPYV,≤ 0.2
3,QERI,≤ 0.2
4,QTED,≤ 0.2
5,QRHG,0.403
6,RVGE,≤ 0.2
7,RWKL,≤ 0.2
8,CQRS,≤ 0.2
9,FRPT,≤ 0.2
10,QSCN,≤ 0.2
11,RMDT,0.226
12,QKLM,≤ 0.2
13,ETLL,≤ 0.2
14,RWSR,≤ 0.2
15,HNTG,≤ 0.2
16,WDSS,≤ 0.2
17,DVHV,≤ 0.2
18,WDTG,≤ 0.2
19,CTFF,≤ 0.2
20,SVPD,≤ 0.2
21,DSQT,≤ 0.2
22,CEYR,≤ 0.2
23,RNMA,≤ 0.2
24,DLYF,≤ 0.2

row,Variant,one-hybrid fitness for binding NBS DNA
1,KHTS,≤ 0.2
2,PPYV,≤ 0.2
3,LWPI,≤ 0.2
4,VNFG,≤ 0.2
5,WVKR,≤ 0.2
6,HNML,≤ 0.2
7,PRKP,≤ 0.2
8,HKNR,≤ 0.2
9,PVFL,≤ 0.2
10,FNHS,≤ 0.2
11,EHAS,≤ 0.2
12,RIGV,≤ 0.2
13,FRPF,≤ 0.2
14,RRIY,0.337
15,LICE,≤ 0.2
16,NCQS,≤ 0.2
17,TNEW,≤ 0.2
18,GMNG,≤ 0.2
19,YMLC,≤ 0.2
20,GCMT,≤ 0.2
21,TTCV,≤ 0.2
22,RACC,≤ 0.2
23,NTWS,≤ 0.2
24,SAEF,≤ 0.2

row,Variant,one-hybrid fitness for binding NBS DNA
1,GGLR,≤ 0.2
2,AMTY,≤ 0.2
3,KEEV,≤ 0.2
4,RFPT,≤ 0.2
5,KMKK,≤ 0.2
6,TCFD,≤ 0.2
7,FNAC,≤ 0.2
8,ARDS,≤ 0.2
9,DHPV,≤ 0.2
10,LNSG,≤ 0.2
11,CQWG,≤ 0.2
12,SEHC,≤ 0.2
13,TKHF,≤ 0.2
14,PSPH,≤ 0.2
15,CYYR,≤ 0.2
16,AFAK,≤ 0.2
17,HWVL,≤ 0.2
18,NPSG,≤ 0.2
19,LAAM,≤ 0.2
20,PGNH,≤ 0.2
21,CGPS,≤ 0.2
22,ERSV,≤ 0.2
23,DHDS,≤ 0.2
24,WQRM,≤ 0.2

row,Variant,one-hybrid fitness for binding NBS DNA
1,QLSF,≤ 0.2
2,VLYR,≤ 0.2
3,SYYG,≤ 0.2
4,FIPE,≤ 0.2
5,AKLV,≤ 0.2
6,RDQK,≤ 0.2
7,KSFM,≤ 0.2
8,SEGF,≤ 0.2
9,LGYG,≤ 0.2
10,QNYN,≤ 0.2
11,HNMR,0.236
12,QAPG,≤ 0.2
13,PFRG,≤ 0.2
14,HYYY,≤ 0.2
15,HKHH,≤ 0.2
16,WEQI,≤ 0.2
17,TRWL,≤ 0.2
18,SDVE,≤ 0.2
19,DVCR,≤ 0.2
20,RHMD,≤ 0.2
21,TWTD,≤ 0.2
22,HLNK,≤ 0.2
23,MHHP,≤ 0.2
24,RCHP,≤ 0.2

row,Variant,one-hybrid fitness for binding NBS DNA
1,PLRS,≤ 0.2
2,LKMG,≤ 0.2
3,TVPT,≤ 0.2
4,VWEC,≤ 0.2
5,HGTM,≤ 0.2
6,THIC,≤ 0.2
7,DNVM,≤ 0.2
8,GRPD,≤ 0.2
9,NVAY,≤ 0.2
10,YRKV,≤ 0.2
11,PVRV,≤ 0.2
12,RMHI,≤ 0.2
13,FPMS,≤ 0.2
14,RWHT,≤ 0.2
15,EAFF,≤ 0.2
16,RHHP,≤ 0.2
17,WSSM,≤ 0.2
18,AWIP,≤ 0.2
19,YMNC,≤ 0.2
20,CWSS,≤ 0.2
21,LVYV,≤ 0.2
22,DSMR,≤ 0.2
23,ISHC,≤ 0.2
24,SAET,≤ 0.2

row,Variant,one-hybrid fitness for binding NBS DNA
1,RFMF,≤ 0.2
2,RLEF,≤ 0.2
3,VVLT,≤ 0.2
4,VNKH,≤ 0.2
5,GANR,≤ 0.2
6,YFDV,≤ 0.2
7,AYNP,≤ 0.2
8,HGFD,≤ 0.2
9,QMKL,0.262
10,YFDT,≤ 0.2
11,DRTY,≤ 0.2
12,ELQS,≤ 0.2
13,EWPT,≤ 0.2
14,WYNG,≤ 0.2
15,EAPD,≤ 0.2
16,WQIG,≤ 0.2
17,DQQG,≤ 0.2
18,LPEC,≤ 0.2
19,LLFC,≤ 0.2
20,TYLR,≤ 0.2
21,PTQT,≤ 0.2
22,YIDF,≤ 0.2
23,NTMH,≤ 0.2
24,RDGI,≤ 0.2

row,Variant,one-hybrid fitness for binding NBS DNA
1,KHAY,≤ 0.2
2,MAQS,≤ 0.2
3,SPFR,≤ 0.2
4,QSHS,0.381
5,HDVA,≤ 0.2
6,AQRF,≤ 0.2
7,HQQS,≤ 0.2
8,ISPI,≤ 0.2
9,NHYS,≤ 0.2
10,SMDG,≤ 0.2
11,LIMR,≤ 0.2
12,QYFS,≤ 0.2
13,FFKS,≤ 0.2
14,QNVS,≤ 0.2
15,ETLP,≤ 0.2
16,LFVN,≤ 0.2
17,PGTC,≤ 0.2
18,GLTR,≤ 0.2
